According to ChEMBL document CHEMBL5606458, “ASAP - ZIKV NS2B-NS3 protease fluorescence single point” (2024):
The campaign covered roughly 2,700 compounds. About 160 (5.9%) showed an effect of 50% or more. The list shows a part of the results.

Target: Nonstructural protein 3 (Zika virus) (UniProt A0A024AXB9)
[1] = PRVABC59, Concentration 15.0 uM, Number of replicates 1.0
[2] = PRVABC59, Concentration 50.0 uM, Number of replicates 1.0

Sequence of UniProt A0A024AXB9 (A0A024AXB9 as listed by the source): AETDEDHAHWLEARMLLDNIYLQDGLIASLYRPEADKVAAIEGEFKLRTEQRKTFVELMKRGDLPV

SMILES: CN1CCN(c2ccc(CNS(=O)(=O)c3ccc(C(N)=O)cc3)cc2)CC1
- inhibition (PRVABC59, Concentration 49.5 uM, Number of replicates 2.0, Standard deviation 3.1298940912505486 %): -2.93%
- inhibition (PRVABC59, Concentration 99.01 uM, Number of replicates 2.0, Standard deviation 2.0491409994990377 %): -9.18%

SMILES: O=S1(=O)CCC(CN2CC[C@H](c3c[nH]c4ccccc34)C2)CC1
- inhibition (PRVABC59, Concentration 49.5 uM, Number of replicates 2.0, Standard deviation 2.6145692949548804 %): 0.007%
- inhibition (PRVABC59, Concentration 99.01 uM, Number of replicates 2.0, Standard deviation 2.809024064390927 %): 5.11%
- inhibition (PRVABC59, Concentration 198.0 uM, Number of replicates 2.0, Standard deviation 2.251024066691432 %): 13.7%

SMILES: CSc1cccc(CN(C)C(=O)c2cc(Cl)ccc2NS(=O)(=O)c2ccc(Oc3ccccc3Cl)cc2)c1
- inhibition [1]: 13.8%

SMILES: Cn1cc(CNC(=O)c2ccccc2[C@@H]2CCCCN2)cn1
- inhibition (PRVABC59, Concentration 49.5 uM, Number of replicates 2.0, Standard deviation 2.1558812651007577 %): -3.96%
- inhibition (PRVABC59, Concentration 99.01 uM, Number of replicates 2.0, Standard deviation 1.0587457776267595 %): -2.54%
- inhibition (PRVABC59, Concentration 198.0 uM, Number of replicates 2.0, Standard deviation 0.05455370060074293 %): -3.02%

SMILES: O=Cc1ccc(N2CCC(C(=O)NCc3c(Cl)cccc3Cl)CC2)cc1
- inhibition (PRVABC59, Concentration 10.0 uM, Number of replicates 1.0): 5.89%

SMILES: NC(=O)[C@@H]1Cc2ccccc2CN1C(=O)c1cc(Cl)ccc1NS(=O)(=O)c1ccc(Oc2ccccc2Cl)cc1
- inhibition [1]: 20.5%

SMILES: O=C(Nc1cc(C(F)(F)F)ccn1)c1cc(Cl)ccc1NS(=O)(=O)c1ccc(Oc2ccccc2Cl)cc1
- inhibition [1]: 25.3%

SMILES: O=C(c1cc(Cl)ccc1NS(=O)(=O)c1ccc(Oc2ccccc2Cl)cc1)N1CCNC(=O)C12CCCCC2
- inhibition [1]: 17.6%

SMILES: COc1cccc(Cn2ncc(C3CCNCC3)c2C)n1
- inhibition (PRVABC59, Concentration 49.5 uM, Number of replicates 2.0, Standard deviation 0.798878467099078 %): 1.12%
- inhibition (PRVABC59, Concentration 99.01 uM, Number of replicates 2.0, Standard deviation 1.6991071025640905 %): 0.912%
- inhibition (PRVABC59, Concentration 198.0 uM, Number of replicates 2.0, Standard deviation 0.9658081834438721 %): 1.49%

SMILES: Cc1cnccc1NC(=O)c1cccnc1OCC(C)C
- inhibition (PRVABC59, Concentration 49.5 uM, Number of replicates 2.0, Standard deviation 2.430418671336475 %): -1.57%
- inhibition (PRVABC59, Concentration 99.01 uM, Number of replicates 2.0, Standard deviation 1.794495578134735 %): 1.39%
- inhibition (PRVABC59, Concentration 198.0 uM, Number of replicates 2.0, Standard deviation 0.3139872779103988 %): 5.17%

SMILES: Cc1cc(NC(=O)C2CCN(c3ccc(C=O)cc3)CC2)ncc1I
- inhibition [2]: 22.7%

SMILES: Cc1cc(CO)c2cccc(Cc3cccc(NC(=O)C4(C(N)=O)CC4)c3)c2n1
- inhibition (PRVABC59, Concentration 49.95 uM, Number of replicates 2.0, Standard deviation 1.9747889432508479 %): 1.64%
- inhibition (PRVABC59, Concentration 99.9 uM, Number of replicates 2.0, Standard deviation 1.6032438638183952 %): 8.21%

SMILES: Cc1cc(CO)c2cccc(NC(=O)[C@@H]3CC(=O)CCN3)c2n1
- inhibition (PRVABC59, Concentration 49.95 uM, Number of replicates 2.0, Standard deviation 16.037989968188715 %): 12.9%
- inhibition (PRVABC59, Concentration 99.9 uM, Number of replicates 2.0, Standard deviation 20.92566279936443 %): 23%

SMILES: CCCOc1ccc(NC(=O)C2CCN(c3ccc(C=O)cc3)CC2)cc1
- inhibition [2]: 2.4%

SMILES: Cc1cnccc1NC(=O)c1cc(C#N)n(C)c1C
- inhibition (PRVABC59, Concentration 49.5 uM, Number of replicates 2.0, Standard deviation 1.1486465227870428 %): 0.53%
- inhibition (PRVABC59, Concentration 99.01 uM, Number of replicates 2.0, Standard deviation 4.376343134650394 %): 0.146%
- inhibition (PRVABC59, Concentration 198.0 uM, Number of replicates 2.0, Standard deviation 2.5516361265205956 %): 0.012%

SMILES: Cc1ccc(CNC(=O)c2cc(Cl)ccc2NS(=O)(=O)c2ccc(Oc3ccccc3Cl)cc2)c(F)c1F
- inhibition [1]: 23.2%

SMILES: CN1C(=O)c2ccc(NC(=O)C3CCN(c4ccc(C=O)cc4)CC3)cc2C1=O
- inhibition [2]: 28.5%

SMILES: O=Cc1ccc(N2CCC(C(=O)Nc3cc(C(F)(F)F)ccc3Cl)CC2)cc1
- inhibition [2]: 20.6%

SMILES: CC(C)(O)CN(Cc1ccccc1)C(=O)C1CCN(c2ccc(C=O)cc2)CC1
- inhibition [2]: 25.6%

SMILES: Cc1cc(NC(=O)C2CCN(c3ccc(C=O)cc3)CC2)c(F)cc1Br
- inhibition [2]: 25.4%

SMILES: NC(=O)c1ccc(CNC(=O)NCCc2ccc(OCc3ccccc3)cc2)cc1
- inhibition (PRVABC59, Concentration 49.5 uM, Number of replicates 2.0, Standard deviation 1.2785165573830564 %): -5.52%
- inhibition (PRVABC59, Concentration 99.01 uM, Number of replicates 2.0, Standard deviation 1.3428575991449991 %): -5.78%
- inhibition (PRVABC59, Concentration 198.0 uM, Number of replicates 2.0, Standard deviation 0.9941713266177634 %): -7.37%

SMILES: NCc1cccc(NC(=O)[C@H]2C[C@@H](NC(=O)OCc3ccccc3)C2)c1
- inhibition (PRVABC59, Concentration 49.5 uM, Number of replicates 2.0, Standard deviation 2.4695899523424996 %): 0.708%
- inhibition (PRVABC59, Concentration 99.01 uM, Number of replicates 2.0, Standard deviation 2.6714237077221363 %): 5.65%
- inhibition (PRVABC59, Concentration 198.0 uM, Number of replicates 2.0, Standard deviation 2.499126716660025 %): 13.9%

SMILES: N#Cc1cc(Cl)ccc1NC(=O)c1cc(Cl)ccc1NS(=O)(=O)c1ccc(Oc2ccccc2Cl)cc1
- inhibition [1]: 24.2%

SMILES: O=Cc1ccc(N2CCC(C(=O)NCCc3ccc4ccccc4c3)CC2)cc1
- inhibition [2]: 19.9%

SMILES: Cc1cc(CO)c2cccc(Nc3cc(O)[nH]n3)c2n1
- inhibition (PRVABC59, Concentration 49.95 uM, Number of replicates 2.0, Standard deviation 1.761368724187627 %): 18.3%
- inhibition (PRVABC59, Concentration 99.9 uM, Number of replicates 2.0, Standard deviation 1.139118047569397 %): 23.8%

SMILES: O=Cc1ccc(N2CCC(C(=O)NCCc3cc(Cl)ccc3Cl)CC2)cc1
- inhibition [2]: 3.45%

SMILES: O=c1[nH]cc(Cl)cc1CN1CC[C@H](c2c[nH]c3ccccc23)C1
- inhibition (PRVABC59, Concentration 49.5 uM, Number of replicates 2.0, Standard deviation 1.7352961779366058 %): -0.136%
- inhibition (PRVABC59, Concentration 99.01 uM, Number of replicates 2.0, Standard deviation 1.511250443335849 %): 5.66%
- inhibition (PRVABC59, Concentration 198.0 uM, Number of replicates 2.0, Standard deviation 1.5408415770879536 %): 14.3%

SMILES: CC(C)(C)c1ccc(CNC(=O)c2cc(Cl)ccc2NS(=O)(=O)c2ccc(Oc3ccccc3Cl)cc2)cc1
- inhibition [1]: 18.6%

SMILES: Cc1cc(CO)c2cccc(Cc3ccccc3NC(=O)Cc3nnc(C)[nH]3)c2n1
- inhibition (PRVABC59, Concentration 49.95 uM, Number of replicates 2.0, Standard deviation 1.0993669945152562 %): 4.1%
- inhibition (PRVABC59, Concentration 99.9 uM, Number of replicates 2.0, Standard deviation 0.855063124296647 %): 10.8%
